ChEMBL document CHEMBL4888484, “Replenishing the malaria drug discovery pipeline: Screening and hit evaluation of the MMV Hit Generation Library 1 (HGL1) against asexual blood stage Plasmodium falciparum ,using a nano luciferase reporter read-out” (2022)
Among all 4,800 compounds or so, about 420 (8.8%) showed an effect of 50% or more. This is one part of the list.

These compounds were tested on Plasmodium falciparum (assay: Confirmatory screen in NF54 nanoGlo assay, in single point, at 2uM, 72h). Details: timepoint 72 hour.
Type: functional, Erythrocyte

| Compound | % Inhibition |
| --- | --- |
| Cc1ccc(-c2noc(CCC(=O)NC[C@H]3CCCO3)n2)c(=O)n1C(C)C | -1% |
| C[C@@]12CCCCN1CCCc1c2[nH]c2ccccc12 | -15% |
| COc1cccc(NC(=O)C2=Cc3cc(Cl)cc(OC)c3OC=C2)c1 | 5% |
| CCCCOc1ncccc1CNC(=O)N1CCn2nc(C)nc2C1 | -7% |
| COc1cc(C)c2[nH]c3c(c(=O)c2c1)CN(CC(=O)Nc1ccc(C)c(F)c1)CC3 | 0% |
| COc1ccc(CNC(=O)Cn2c(=O)n(CCc3cccs3)c(=O)c3ccccc32)cc1 | 5% |
| Cc1nc2ccc(N(C)S(=O)(=O)c3cc(C(=O)O)cs3)cc2s1 | -3% |
| CC1CCN(c2nccnc2Oc2ccc(C(=O)NCc3ccccc3Cl)cc2)CC1 | 59% |
| Cc1ncsc1CNc1nnc(CC(C)(C)C)o1 | -3% |
| CCOC(=O)C(NC(=O)Cc1c(Cl)cccc1Cl)C(=O)OCC | 3% |
| Cc1nsc(N2CCN(CC(C)O)C(C)C2)n1 (stereo not drawn) | -4% |
| c1ccc(C2(c3nnc(-c4ccncc4)o3)CCOCC2)cc1 | -2% |
| COc1ccc(C(=O)Nc2ccc3c(c2)C(=O)Nc2cccnc2O3)cc1OC | 46% |
| COc1ccc2cccc(NC(=O)c3cc(-c4cc(OC)c(OC)c(OC)c4)n[nH]3)c2n1 | 64% |
| CC1(C2CCN(C(=O)c3c(Cl)cccc3Cl)CC2)OCCO1 | 4% |
| Cc1c(S(=O)(=O)NCCn2nc(C(F)(F)F)cc2C)cnn1C | 6% |
| COCCCC(=O)Nc1cc(C)c(Br)cn1 | 2% |
| CC(C)[C@@H]1CCc2ccccc2N1Cc1nc(N)nc(N(C)C)n1 | -4% |
| CC(C)[C@H](CN1CCOCC1)NC(=O)c1ncccn1 | 0% |
| O=C(NCCC1=CCCCC1)c1c(-c2ccccc2)nc2n1CCS2(=O)=O | -3% |
| CCCN1Cc2cccc(NS(=O)(=O)c3cc(C)ccc3Br)c2C1 | 2% |
| CC1(C)CCc2ccccc2C1NC(=O)C1CC(=O)N(c2nccs2)C1 (stereo not drawn) | -9% |
| CCc1ccccc1C(=O)NC[C@H]1CC[C@H](CN)CC1 | 3% |

| Compound | % Inhibition |
| --- | --- |
| COc1cc(CNCc2ccccn2)ccc1OCc1ccc(Cl)cc1Cl | 3% |
| Cc1ccc(S(=O)(=O)Cc2nc3cc(C)c(C)cc3[nH]c2=O)cc1 | -1% |
| Cc1cnc([C@H](C)NC(=O)c2conc2C(C)(C)N)s1 | -1% |
| O=C1CCCN1CCc1nc(-c2cc(F)ccc2F)cs1 | -7% |
| O=C(CN1CCN(Cc2ccccc2F)C1=O)NC1CCCCCCC1 | -11% |
| COc1cccc(CCC(=O)N2CCN3CCC2C3)c1F (stereo not drawn) | -15% |
| O=C(c1ccc(Cl)c(Cl)c1)N1CCCc2cc(S(=O)(=O)N3CCCC3)ccc21 | -8% |
| CC(C)(C)OC(=O)NCC1CCCCC1C(F)(F)F (stereo not drawn) | 0% |
| Clc1ccc(-c2onc3c2CCCC3)cc1 | 2% |
| Cn1cc(Br)c(C(=O)N2c3ccnn3C(C(F)(F)F)CC2c2ccccc2)n1 (stereo not drawn) | -2% |
| Cc1nn(-c2ccccn2)c(O)c1C(c1ccccc1)c1c(C)nn(-c2ccccn2)c1O | 90% |
| Cc1ccc(-n2nc(N3CCN(C(=O)Cc4ccc(F)cc4)CC3)ccc2=O)cc1 | 4% |
| Cc1cc(C)n(C(=O)Cn2nc(C(F)F)cc2C)n1 | 4% |
| C[N+]12CCCCC1C(OC(=O)C1(c3ccccc3)CCCC1)CCC2 (stereo not drawn) | 96% |
| O=C(CN1C[C@@H](c2ccccc2)Oc2ccccc2C1=O)Nc1ccccc1 | -16% |
| Cc1cc(C)c2c(C(=O)N3CCN(C(=O)[C@H](C)O)CC3)cc(C3CC3)nc2c1 | -14% |
| CCn1cc(S(=O)(=O)N2CC(Oc3cccc(-c4nc(C)no4)c3)C2)cn1 | 2% |
| CCOC(=O)c1nc[nH]c1-n1nc(C)cc1C | -1% |
| Cc1cccc(NC(=O)C(=O)N(C)[C@H]2CCCc3c2cnn3C)c1F | -17% |
| Oc1ccc(-n2c(-c3ccccc3)ccc2-c2ccccc2)cc1 | 2% |
| CCOC(=O)CCn1cc(F)c(=O)[nH]c1=O | 77% |
| CCCN1CCN(CC(=O)Nc2sccc2C#N)c2cc(F)ccc21 | 2% |
| CCS(=O)(=O)N1CCN(c2c(C)n(-c3ccccc3)c(=O)n(C)c2=O)CC1 | 2% |

| Compound | % Inhibition |
| --- | --- |
| CC(CNC(=O)NCC(O)C1CC1)c1ccc(F)c(F)c1 (stereo not drawn) | 3% |
| COc1ccc(CC(=O)N2N=C(C)C[C@]2(O)c2cccnc2)cc1 | 45% |
| Cc1ccccc1CNC(=O)[C@H]1CCCN(c2nc3ccccc3[nH]c2=O)C1 | -1% |
| COc1ccc(S(=O)(=O)Nc2c(C)ccc3nsnc23)cc1OC | 4% |
| CCCNC(=O)C[C@H](C)CC(=O)NCCc1ccc(OC)c(OC)c1 | 4% |
| O=S(=O)(c1ccc(Br)cc1)n1ccc(C2CC2)n1 | -2% |
| CC(C)N(CC(=O)Nc1nccs1)Cc1ccccn1 | 68% |
| Cc1ccc(-c2c[n+](-c3ccc(OC(F)F)cc3)c3n2CCCCC3)cc1 | 67% |
| CN(Cc1ccsc1)C(=O)c1cc2ccccc2[nH]1 | 35% |
| NC(=O)c1ccc(COc2ccc3c(c2)CCC3=O)cc1 | 5% |
| Nc1c(Br)cc(Br)c(Cl)c1Cl | -9% |
| N#CC1(CNC(=O)CNC(=O)C2C3CCCCC32)CC1 (stereo not drawn) | 0% |
| O=c1[nH]c2nc(N3CCC(N4CCCCC4)CC3)ncc2c(=O)n1-c1ccc2c(c1)OCO2 | -9% |
| O=C(C1CCN(c2cncc3nnnn23)CC1)N1CCC(c2ccccc2)CC1 | -4% |
| COCc1nsc(N2CCC(c3ccccc3)CC2C)n1 (stereo not drawn) | 1% |
| CC(C)(C)[C@H]1CCc2c(sc(NC(=O)C3(F)C(F)(F)C(F)(F)C(F)(F)C(F)(F)C3(F)F)c2C#N)C1 | 50% |
| Cc1cc(S(=O)(=O)NC(=O)c2ccnc(C3CCCC3)n2)c(C)s1 | -2% |
| CC(C)(C)OC(=O)N1CCc2ncn(Cc3ccc(F)cc3)c(=O)c2C1 | -7% |
| O=C(Nc1nccs1)N1CC(O)CC1CO (stereo not drawn) | -16% |
| OC1CCC2CN(c3ncc(Cl)c(N4CC5CCC(O)C5C4)n3)CC12 (stereo not drawn) | -4% |
| CC(=O)Nc1ccc(-c2cn3c4ccccc4ccc3[n+]2C)cc1 | 76% |
| CCN(C(=O)[C@H]1CCN(C)[C@@H](C)C1)C1CCCC1 | 6% |
